Laboratory results: PubChem BioAssay AID894 (National Center for Advancing Translational Sciences (NCATS), 2007)
In all, about 150,000 compounds went through this assay and about 6,500 (4.3%) were called active. The inconclusive results got no clear call from the source; some entries with a clear call stand among them for comparison. The call rests on the fitted dose curve; in most records, active means well fitted inhibition curve with a large enough effect (not every such curve was filed as active); inconclusive means small, poorly fitted or top-dose-only effect, or another doubt; inactive means no such curve, though single readings can be large or run the other way. Potencies of inconclusive entries are doubtful fits and often do not repeat.

target: 15-hydroxyprostaglandin dehydrogenase [NAD(+)] (Homo sapiens) (UniProt P15428); test: qHTS Assay for Inhibitors of HPGD (15-Hydroxyprostaglandin Dehydrogenase); details: purified HPGD, NADH fluorescence kinetic, PGE2 substrate; activity change, negative = inhibition: hits give low values
Procedure, shortened: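 NADH formation kinetics: reaction with 30 uM PGE2 and 1 mM NAD+ (final), 20 nM enzyme, Tris-HCl pH 8 with Tween 20, after 15 min compound preincubation at room temperature. Fluorescence change, last versus first of five reads.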
On the % scale 0 is the no-effect control and ±100 the full control effect; potency means the concentration at half of the fitted maximal effect; tags describe the fitted curve by direction and shape.

UniProt P15428, sequence (P15428 whole entry, looked up): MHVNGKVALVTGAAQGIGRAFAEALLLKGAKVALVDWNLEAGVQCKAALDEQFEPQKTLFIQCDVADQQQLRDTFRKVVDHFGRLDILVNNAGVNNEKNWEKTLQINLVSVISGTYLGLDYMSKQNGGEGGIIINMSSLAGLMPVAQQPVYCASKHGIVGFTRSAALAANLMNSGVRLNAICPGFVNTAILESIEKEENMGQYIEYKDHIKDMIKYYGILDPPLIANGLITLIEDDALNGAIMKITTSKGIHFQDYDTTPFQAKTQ

Potency, inconclusive:
COCn1c(-c2ccc(OC)c(OC)c2)nc2ccccc21 25.1 µM [inhibitor, single point]
COCc1cc(C)nc2sc(C(=O)OC(C)C)c(N)c12 20 µM [inhibitor, single point]
COc1cccc(Cn2nnc(C(=O)Nc3cc(Cl)ccc3OC)c2N)c1 31.6 µM [inhibitor, partial curve]
COc1cccc(C(=O)NCC2CCN(c3ccc(S(=O)(=O)N4CCOCC4)cc3)CC2)c1 35.5 µM [inhibitor, partial curve]
CCn1c2ccccc2c2nnc(SCc3ccc(C(=O)OC)o3)nc21 22.4 µM [inhibitor, partial curve]
Cc1ccc(-c2cc(C(F)(F)F)c(C#N)c(=O)[nH]2)cc1 28.2 µM [inhibitor, partial curve]
CC(=O)c1ccc(N2CCN(C(=O)CCCc3nc4ccccc4s3)CC2)cc1 28.2 µM [inhibitor, partial curve]
Cc1sc2ncnc(Nc3ccccc3)c2c1C 20 µM [inhibitor, single point]
COCCCNC(=O)CS(=O)Cc1nc(-c2cccc(OC)c2)oc1C (configuration not stated) 28.2 µM [inhibitor, partial curve, poor fit]
COC(=O)c1cc2c(ccn2-c2ccc(F)cc2)n1Cc1ccc(OC)cc1 35.5 µM [inhibitor, single point]
S=C(c1nc2ccccc2[nH]1)N1CCOCC1 31.6 µM [inhibitor, single point]
COc1ccccc1CNc1cc(-c2ccccc2)ccc1OC 35.5 µM [inhibitor, partial curve]
Cc1nn(-c2ccc(Cl)cc2)c2[nH]c(=O)c(CNCc3ccc4c(c3)OCO4)cc12 31.6 µM [inhibitor, single point]
CCOC(=O)c1cc2c(=O)[nH]ccc2nc1C 25.1 µM [inhibitor, partial curve]
COC(=O)c1c(NC(=O)c2cccs2)sc2c1CCCC2 28.2 µM [inhibitor, partial curve]
COc1ccc(Nc2nc(C)cc(C)c2C#N)cc1 35.5 µM [inhibitor, single point]
Fc1cccc(Oc2nc3ccccc3n3cccc23)c1 39.8 µM [inhibitor, single point]
COc1cccc(CNc2nc3nc(C)cc(C)n3n2)c1 22.4 µM [inhibitor, single point]
CCOc1ccc(Nc2ncnc3c2cnn3Cc2ccccc2)cc1 35.5 µM [inhibitor, partial curve]
CN(/N=C/C=C/c1ccccc1)C1=NS(=O)(=O)c2ccccc21 35.5 µM [inhibitor, single point]
Cc1ccc(-c2cn3nc(C)c(C)nc3n2)cc1 31.6 µM [inhibitor, partial curve]
CCOC(=O)CCn1c2nc(C)cc(C)c2c(=O)n1-c1ccccc1 31.6 µM [inhibitor, partial curve]
COc1ccc2c3c(c(=O)oc2c1OCC(=O)O)CCCC3 31.6 µM [inhibitor, partial curve]
Cc1ccc(-c2cc(C(=O)N/N=C/c3c(C)nn(-c4ccccc4)c3C)n[nH]2)s1 35.5 µM [inhibitor, single point]
CC1=CC(c2ccc(Cl)cc2)n2nc(NS(=O)(=O)c3ccc(C)cc3)nc2N1 (configuration not stated) 35.5 µM [inhibitor, single point]
COc1ccc(C(C(C(=O)c2ccco2)N2CCOCC2)N2CCOCC2)cc1 (configuration not stated) 7.08 µM [inhibitor, single point]
CCOC(=O)CCc1c(C)nc2cc(C3CCCN(C(=O)OC(C)(C)C)C3)[nH]n2c1=O (configuration not stated) 20 µM [inhibitor, partial curve]
N/C(=N\OC(=O)COc1ccc(Cl)cc1Cl)c1cccnc1 8.91 µM [inhibitor, full curve, poor fit]
CC(OC(=O)c1snc(C(=O)NC2CCCCC2)c1N)C(=O)NC1CCCCC1 (configuration not stated) 31.6 µM [inhibitor, partial curve]
COc1cc2nc(/C=C/c3cc(OC)c(OC)c(OC)c3)sc2cc1SC 35.5 µM [inhibitor, single point]
S=C(c1ccc(-c2ccc(Cl)cc2Cl)o1)N1CCCCC1 22.4 µM [inhibitor, partial curve, poor fit]
O=C(c1ccc2c(=O)n(-c3ccccc3)c(=O)[nH]c2c1)N1CCCCC1 17.8 µM [inhibitor, partial curve]
Cc1cc(C)cc(-n2cc[nH]c2=S)c1 28.2 µM [inhibitor, single point]
Cc1ccc(-c2ccc(C(=O)O)[nH]2)cc1 28.2 µM [inhibitor, single point]
O=C(CSc1nnc(CCCN2C(=O)c3cccc4cccc(c34)C2=O)n1-c1ccccc1)N1CCCCC1 17.8 µM [inhibitor, partial curve]
Cc1nc(=O)c(-c2ccccc2)c(C)n1-c1ccc(O)c(C(=O)O)c1 15.8 µM [inhibitor, partial curve, poor fit]

Potency, active:
Cc1noc(NS(=O)(=O)c2ccc(NC(=O)CSc3nc4ccccc4s3)cc2)c1C 28.2 µM
COc1ccc(/C=C/C(=O)c2ccc(O)cc2O)cc1OC 14.1 µM
CN(C)c1ccc(/C=C(/NC(=O)c2ccccc2)C(=O)N/N=C/c2ccc([N+](=O)[O-])c(O)c2)cc1 15.8 µM
CC1CC(C)CN(C(=O)c2ccc3c(=O)n(Cc4ccc5c(c4)OCO5)c(=S)[nH]c3c2)C1 (configuration not stated) 15.8 µM
CC1(C)CC(=O)C2=C(C1)OC(N)=C(C#N)C2C#Cc1ccccc1 (configuration not stated) 12.6 µM
O=C(Nc1ccc(F)cc1)N1CCC(c2nc3c(nnn3Cc3cccc(Cl)c3)c(=O)[nH]2)CC1 8.91 µM
O=C(NCc1ccccc1)C1COc2ccccc2O1 (configuration not stated) 11.2 µM
O=C(c1ccc(NS(=O)(=O)c2cccs2)cc1)N1CCCCC1 11.2 µM
S=c1[nH]nc(COc2ccccc2)n1/N=C/C=C/c1ccccc1 5.01 µM
Oc1ccc(Cl)cc1CNc1ccc(Br)cn1 14.1 µM
CCC(=O)Nc1sc2c(c1C#N)CC(C)(CC)OC2 (configuration not stated) 39.8 µM
COc1cc(/C=C2\C(=O)N(CCC#N)N=C2C)c(Br)cc1OC(C)C 8.91 µM

Activity change, negative = inhibition, inactive:
CCCCN(CCCNc1ncnc2nc[nH]c12)c1ccccc1 -4.93%
C#C[C@@]1(O)CC[C@@H]2[C@@H]3CCC4=CC(=O)CC[C@@H]4[C@H]3CC[C@]21C -6.66%
Cc1ccc(OCC(=O)c2cc(C)n(-c3ccccc3)c2C)c([N+](=O)[O-])n1 -9.95%
Cc1cc(C(F)(F)F)c2sc(N)nc2n1 44.1%
COC(=O)c1ccc(C(NC(=O)OCc2ccccc2)/C(=C/[C@@H](C)C(=O)Nc2ccccc2)c2cccnc2)cc1 (some centres not stated) -5.37%
COc1ccc2c(c1)O[C@H](c1ccc3c(c1)OCO3)[C@@H](OC(=O)NS(=O)(=O)c1ccc(F)cc1)C2=O -6.93%
CCCCn1c(=O)n(CC(=O)Nc2ccc(OC)c(Cl)c2)c(=O)c2c1nc(CO)n2CCC -3.18%
O[C@@H](COc1ccc(Cl)cc1Cl)CN1CCCC1 0.295%
Cc1ccc(S(=O)(=O)N2CCCOC2CNC(=O)C(=O)NCc2ccco2)cc1 (configuration not stated) 0.0217%
CCCNC(=O)c1cnc(Sc2ncc(C(F)(F)F)cc2Cl)n1C -9.93%
Cc1ccc(/C=C/C(=O)Nn2cnnc2)cc1 -1.21%
Cc1cccc(N2CCN(C(=O)Cc3c(C(=O)O)[nH]c4ccc(Cl)cc34)CC2)c1C -5.01%
COc1ccc(CC(=O)OCC(=O)NC(=O)NC(C)C)cc1 -6.57%
O=c1c2ccccc2nc(-c2ccccc2)n1/N=C/c1ccc([N+](=O)[O-])cc1 -10.8%
CCCN(CCC)S(=O)(=O)c1ccc(C(=O)N2CCOCC2)cc1 -0.79%
O=C(CSc1ccccc1)Nc1ccccc1C(=O)O -24.7%
CC(C1OC(C)(C)C(O)C1O)C1CC[C@@]2(C)C3=CCC4C(C)(C)C(=O)CC[C@]4(C)C3CC[C@@]12C (some centres not stated) -6.31%
COc1ccc(-n2cnnc2SCc2csc(-c3ccccc3)n2)cc1 -10.6%
O=Cc1cn(CC(=O)N2CCCc3ccccc32)c2ccccc12 -8.51%
CCOc1cc(C(=O)Nc2c3c(nn2C(C)(C)C)CS(=O)C3)cc(OCC)c1OCC (configuration not stated) 2.65%
CCN1C(=O)/C(=C/N(C(C)=O)c2ccccc2)N(c2ccccc2)C1=S -8.87%
COC(=O)CCC(=O)OC1(C)C(=O)C2=COC(c3ccc(OC)cc3)=CC2=C(Br)C1=O (configuration not stated) -4.71%
CCOC(=O)c1c(NC(=S)NC(=O)c2ccc(Cn3cc(Cl)cn3)o2)sc2c1CCC(C)C2 (configuration not stated) -14.8%
O=C(NN1C(=O)C2C3CCC(O3)C2C1=O)c1ccc(Cl)cc1 (configuration not stated) 3.03%
